Source: the supplement of paper PMC12423691
The other results are listed elsewhere or left out. Binding of human transcription factors and regulators to the viral nucleoprotein by AlphaScreen, crude cell-free proteins, amounts not normalised, one pass. Fold of the Venus control; higher = more signal. No active / inactive call. Single-pass screen; sequences are the whole Swiss-Prot entries looked up by name.

B1: TSC22D3, Q99576 (protein)
chain: MNTEMYQTPMEVAVYQLHNFSISFFSSLLGGDVVSVKLDNSASGASVVAIDNKIEQAMDLVKNHLMYAVREEVEILKEQIRELVEKNSQLERENTLLKTLASPEQLEKFQSCLSPEEPAPESPQVPEAPGGSAV
B2: MLXIPL, Q9NP71 (protein)
chain: MAGALAGLAAGLQVPRVAPSPDSDSDTDSEDPSLRRSAGGLLRSQVIHSGHFMVSSPHSDSLPRRRDQEGSVGPSDFGPRSIDPTLTRLFECLSLAYSGKLVSPKWKNFKGLKLLCRDKIRLNNAIWRAWYIQYVKRRKSPVCGFVTPLQGPEADAHRKPEAVVLEGNYWKRRIEVVMREYHKWRIYYKKRLRKPSREDDLLAPKQAEGRWPPPEQWCKQLFSSVVPVLLGDPEEEPGGRQLLDLNCFLSDISDTLFTMTQSGPSPLQLPPEDAYVGNADMIQPDLTPLQPSLDDFMDISDFFTNSRLPQPPMPSNFPEPPSFSPVVDSLFSSGTLGPEVPPASSAMTHLSGHSRLQARNSCPGPLDSSAFLSSDFLLPEDPKPRLPPPPVPPPLLHYPPPAKVPGLEPCPPPPFPPMAPPTALLQEEPLFSPRFPFPTVPPAPGVSPLPAPAAFPPTPQSVPSPAPTPFPIELLPLGYSEPAFGPCFSMPRGKPPAPSPRGQKASPPTLAPATASPPTTAGSNNPCLTQLLTAAKPEQALEPPLVSSTLLRSPGSPQETVPEFPCTFLPPTPAPTPPRPPPGPATLAPSRPLLVPKAERLSPPAPSGSERRLSGDLSSMPGPGTLSVRVSPPQPILSRGRPDSNKTENRRITHISAEQKRRFNIKLGFDTLHGLVSTLSAQPSLKVSKATTLQKTAEYILMLQQERAGLQEEAQQLRDEIEELNAAINLCQQQLPATGVPITHQRFDQMRDMFDDYVRTRTLHNWKFWVFSILIRPLFESFNGMVSTASVHTLRQTSLAWLDQYCSLPALRPTVLNSLRQLGTSTSILTDPGRIPEQATRAVTEGTLGKPL
B3: TRAF1, Q13077 (protein)
chain: MASSSGSSPRPAPDENEFPFGCPPTVCQDPKEPRALCCAGCLSENPRNGEDQICPKCRGEDLQSISPGSRLRTQEKAHPEVAEAGIGCPFAGVGCSFKGSPQSVQEHEVTSQTSHLNLLLGFMKQWKARLGCGLESGPMALEQNLSDLQLQAAVEVAGDLEVDCYRAPCSESQEELALQHFMKEKLLAELEGKLRVFENIVAVLNKEVEASHLALATSIHQSQLDRERILSLEQRVVELQQTLAQKDQALGKLEQSLRLMEEASFDGTFLWKITNVTRRCHESACGRTVSLFSPAFYTAKYGYKLCLRLYLNGDGTGKRTHLSLFIVIMRGEYDALLPWPFRNKVTFMLLDQNNREHAIDAFRPDLSSASFQRPQSETNVASGCPLFFPLSKLQSPKHAYVKDDTMFLKCIVETST
B4: OVOL2, Q9BRP0 (protein)
chain: MPKVFLVKRRSLGVSVRSWDELPDEKRADTYIPVGLGRLLHDPPEDCRSDGGSSSGSGSSSAGEPGGAESSSSPHAPESETPEPGDAEGPDGHLATKQRPVARSKIKFTTGTCSDSVVHSCDLCGKGFRLQRMLNRHLKCHNQVKRHLCTFCGKGFNDTFDLKRHVRTHTGIRPYKCNVCNKAFTQRCSLESHLKKIHGVQQQYAYKQRRDKLYVCEDCGYTGPTQEDLYLHVNSAHPGSSFLKKTSKKLAALLQGKLTSAHQENTSLSEEEERK
B5: TRIM32, Q13049 (protein)
chain: MAAAAASHLNLDALREVLECPICMESFTEEQLRPKLLHCGHTICRQCLEKLLASSINGVRCPFCSKITRITSLTQLTDNLTVLKIIDTAGLSEAVGLLMCRSCGRRLPRQFCRSCGLVLCEPCREADHQPPGHCTLPVKEAAEERRRDFGEKLTRLRELMGELQRRKAALEGVSKDLQARYKAVLQEYGHEERRVQDELARSRKFFTGSLAEVEKSNSQVVEEQSYLLNIAEVQAVSRCDYFLAKIKQADVALLEETADEEEPELTASLPRELTLQDVELLKVGHVGPLQIGQAVKKPRTVNVEDSWAMEATASAASTSVTFREMDMSPEEVVASPRASPAKQRGPEAASNIQQCLFLKKMGAKGSTPGMFNLPVSLYVTSQGEVLVADRGNYRIQVFTRKGFLKEIRRSPSGIDSFVLSFLGADLPNLTPLSVAMNCQGLIGVTDSYDNSLKVYTLDGHCVACHRSQLSKPWGITALPSGQFVVTDVEGGKLWCFTVDRGSGVVKYSCLCSAVRPKFVTCDAEGTVYFTQGLGLNLENRQNEHHLEGGFSIGSVGPDGQLGRQISHFFSENEDFRCIAGMCVDARGDLIVADSSRKEILHFPKGGGYSVLIREGLTCPVGIALTPKGQLLVLDCWDHCIKIYSYHLRRYSTP
B6: TERF2IP, Q9NYB0 (protein)
chain: MAEAMDLGKDPNGPTHSSTLFVRDDGSSMSFYVRPSPAKRRLSTLILHGGGTVCRVQEPGAVLLAQPGEALAEASGDFISTQYILDCVERNERLELEAYRLGPASAADTGSEAKPGALAEGAAEPEPQRHAGRIAFTDADDVAILTYVKENARSPSSVTGNALWKAMEKSSLTQHSWQSLKDRYLKHLRGQEHKYLLGDAPVSPSSQKLKRKAEEDPEAADSGEPQNKRTPDLPEEEYVKEEIQENEEAVKKMLVEATREFEEVVVDESPPDFEIHITMCDDDPPTPEEDSETQPDEEEEEEEEKVSQPEVGAAIKIIRQLMEKFNLDLSTVTQAFLKNSGELEATSAFLASGQRADGYPIWSRQDDIDLQKDDEDTREALVKKFGAQNVARRIEFRKK
B7: FUBP1, Q96AE4 (protein)
chain: MADYSTVPPPSSGSAGGGGGGGGGGGVNDAFKDALQRARQIAAKIGGDAGTSLNSNDYGYGGQKRPLEDGDQPDAKKVAPQNDSFGTQLPPMHQQQSRSVMTEEYKVPDGMVGFIIGRGGEQISRIQQESGCKIQIAPDSGGLPERSCMLTGTPESVQSAKRLLDQIVEKGRPAPGFHHGDGPGNAVQEIMIPASKAGLVIGKGGETIKQLQERAGVKMVMIQDGPQNTGADKPLRITGDPYKVQQAKEMVLELIRDQGGFREVRNEYGSRIGGNEGIDVPIPRFAVGIVIGRNGEMIKKIQNDAGVRIQFKPDDGTTPERIAQITGPPDRCQHAAEIITDLLRSVQAGNPGGPGPGGRGRGRGQGNWNMGPPGGLQEFNFIVPTGKTGLIIGKGGETIKSISQQSGARIELQRNPPPNADPNMKLFTIRGTPQQIDYARQLIEEKIGGPVNPLGPPVPHGPHGVPGPHGPPGPPGPGTPMGPYNPAPYNPGPPGPAPHGPPAPYAPQGWGNAYPHWQQQAPPDPAKAGTDPNSAAWAAYYAHYYQQQAQPPPAAPAGAPTTTQTNGQGDQQNPAPAGQVDYTKAWEEYYKKMGQAVPAPTGAPPGGQPDYSAAWAEYYRQQAAYYAQTSPQGMPQHPPAPQGQ

target: nucleoprotein N of Crimean-Congo hemorrhagic fever virus; assay: AlphaScreen luminescence signal relative to Venus negative control (fold); higher = stronger binding to CCHFV N
Protocol: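 AlphaScreen binding of cell-free made, FLAG-GST-tagged human transcription factors and regulators (crude translation products) to biotinylated N protein; signal as fold of the FLAG-GST-Venus control. One pass.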

Binder	AlphaScreen luminescence signal
B1	1.26
B2	2.05
B3	1.58
B4	5.58
B5	1.95
B6	1.44
B7	1.67
